Experimental data from the RNAGym collection of RNA variant scans (doi:10.1073/pnas.2313332121).
Variants at the floor of the assay are shown more often than the library holds them.

B1: TPR 5TU (parent)
chain: GGAUCUUCUCGAUCUAACAAAAAAGACAAAUCUGCCACAAAGCUUGAGAGCAUCUUCGGAUGCAGAGGCGGCAGCCUUCGGUGGCGCGAUAGCGCCAACGUUCUCAACUAUGACACGCAAAACGCGUGCUCCGUUGAAUGGAGUUUAUCAUG

Variants of: B1
Assay: polymerase ribozyme fitness, log enrichment relative to wild type (log ratio); higher = more active; in vitro selection for triplet polymerase activity
In short: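 A single round of triplicate in vitro selection, including frozen incubation at −7 °C, was applied to PCR-built, transcribed mutant libraries of each subunit of a heterodimeric triplet polymerase ribozyme. Illumina sequencing of input and output libraries retained genotypes with ≥10 input reads and ≥1 read per output. Fitness is the base-2 logarithm of genotype enrichment divided by wild-type enrichment, from inverse-variance-weighted replicate averages.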

A40U A52G C116G A137C and A40U C69U G84C G143C cannot be ordered by “polymerase ribozyme fitness (log ratio)” value: ≤ -4.2 for the first, ≤ -4.2 for the second.

Going from A39U U53A C75G G86U U146G to A40G C85U C118A, the “polymerase ribozyme fitness (log ratio)” value rises from ≤ -4.2 to -2.77.

A39U C69A G74C C76U C87A and A39U G48C G68U A122G G140U U145A A147C cannot be ordered by “polymerase ribozyme fitness (log ratio)” value: ≤ -4.2 for the first, ≤ -4.2 for the second.

A40U A41C G68A C105A and A40G A91C cannot be ordered by “polymerase ribozyme fitness (log ratio)” value: ≤ -4.2 for the first, ≤ -4.2 for the second.

A40C G71A C76G G83A C85U A107G G126U A138C and A39U A73C C87A U101G cannot be ordered by “polymerase ribozyme fitness (log ratio)” value: ≤ -4.2 for the first, ≤ -4.2 for the second.

Going from A39U A41C A98G to A40C G46C C57A G74C C103A A107U C118G U134G G140C, the “polymerase ribozyme fitness (log ratio)” value falls from -2.72 to ≤ -4.2.

Compared with A39G G58U G59C G124C G136A, A40U A98G is higher in “polymerase ribozyme fitness (log ratio)” value: ≤ -4.2 for the first, -0.242 for the second.

A40C C43A G80U C87A and A40U A49U C87U G141U A142U cannot be ordered by “polymerase ribozyme fitness (log ratio)” value: ≤ -4.2 for the first, ≤ -4.2 for the second.

A39U U53A G74U and A40G U53G G84A A110G G136U cannot be ordered by “polymerase ribozyme fitness (log ratio)” value: ≤ -4.2 for the first, ≤ -4.2 for the second.

A40G C43G A64C and A39U G50C G83U C87A C95G A107G cannot be ordered by “polymerase ribozyme fitness (log ratio)” value: ≤ -4.2 for the first, ≤ -4.2 for the second.

Compared with A40C A73G G92A U111C U134A, A40U C63G is higher in “polymerase ribozyme fitness (log ratio)” value: ≤ -4.2 for the first, 0.0879 for the second.

Compared with A40G C63G C85U U145A, A40C U56A A89G is higher in “polymerase ribozyme fitness (log ratio)” value: -2.16 for the first, -0.978 for the second.

Going from A40U A41C A49G C96A to A40C A49G C87U C105U A106U U109G U139G, the “polymerase ribozyme fitness (log ratio)” value falls from -1.32 to ≤ -4.2.

A40U A66G A73U U78G A89C C93U C116U U144C A147G and A40C U44G G80A G84A G133C cannot be ordered by “polymerase ribozyme fitness (log ratio)” value: ≤ -4.2 for the first, ≤ -4.2 for the second.

A39U A49C C54U C79U A89C G141U U148A and A40G A52C C87A G126C A137C cannot be ordered by “polymerase ribozyme fitness (log ratio)” value: ≤ -4.2 for the first, ≤ -4.2 for the second.

Going from A40C U56A C57U G140C to A39U A66U G88A C99G G143U, the “polymerase ribozyme fitness (log ratio)” value falls from -3.75 to ≤ -4.2.

A40U C79G A91G and A39U U56G C93G U101G cannot be ordered by “polymerase ribozyme fitness (log ratio)” value: ≤ -4.2 for the first, ≤ -4.2 for the second.

A39U C93G A97G A106G A122G G136C U144G and A39U C85G U101C U127G cannot be ordered by “polymerase ribozyme fitness (log ratio)” value: ≤ -4.2 for the first, ≤ -4.2 for the second.

A40C U61A U90C A147G and A40U C75G C85G U135G G140U cannot be ordered by “polymerase ribozyme fitness (log ratio)” value: ≤ -4.2 for the first, ≤ -4.2 for the second.

Going from A39U G59C G83U to A39U A64C C96U C125U, the “polymerase ribozyme fitness (log ratio)” value falls from -2.72 to ≤ -4.2.

Going from A39G G80U C95U C116G to A40C G71C C85G U127G C131G U144G, the “polymerase ribozyme fitness (log ratio)” value falls from -3.6 to ≤ -4.2.

Compared with A40G G117A, A40G C96U is higher in “polymerase ribozyme fitness (log ratio)” value: -3.18 for the first, -1.81 for the second.

A40C A64C C85A U102A A106U G126A G133C U134C U148C and A40G C87G C103A G117U cannot be ordered by “polymerase ribozyme fitness (log ratio)” value: ≤ -4.2 for the first, ≤ -4.2 for the second.

Compared with A39U G42C G68C, A40G G143A is higher in “polymerase ribozyme fitness (log ratio)” value: ≤ -4.2 for the first, -2.88 for the second.

First: A40U C87A
Second: A40C A113G C116U U134G G141U
The “polymerase ribozyme fitness (log ratio)” value of the first is higher: -3.87 for the first, ≤ -4.2 for the second.

A39U A52G C57U G84A C132G and A40U A49U A60C C63G U78C G86A A97U C149A cannot be ordered by “polymerase ribozyme fitness (log ratio)” value: ≤ -4.2 for the first, ≤ -4.2 for the second.

A40G G70A U109C A147C and A40C A52C G88U G92A A97G cannot be ordered by “polymerase ribozyme fitness (log ratio)” value: ≤ -4.2 for the first, ≤ -4.2 for the second.

A39G G50C C63U G81C A91C and A39G G58U U82C C108A U146A A150C cannot be ordered by “polymerase ribozyme fitness (log ratio)” value: ≤ -4.2 for the first, ≤ -4.2 for the second.

First: A40C C54U U56A G126U
Second: A39G G65C C85G
The “polymerase ribozyme fitness (log ratio)” value of the first is higher: -0.0276 for the first, ≤ -4.2 for the second.

A39G G88C A91U G136U and A40C G50A A60U G88U G92C C95G G100U cannot be ordered by “polymerase ribozyme fitness (log ratio)” value: ≤ -4.2 for the first, ≤ -4.2 for the second.

Going from A39G C75U C85U A137G to A40C C69G G83C C131G, the “polymerase ribozyme fitness (log ratio)” value falls from -3.67 to ≤ -4.2.

A39G G62C C85A G88C C95A C108A A119C A150G and A39G G88C A91U G143U cannot be ordered by “polymerase ribozyme fitness (log ratio)” value: ≤ -4.2 for the first, ≤ -4.2 for the second.

A39U G42U A73G C87A U135G and A40C U77A G94A A97C C99U A113G G117U U139G U144G cannot be ordered by “polymerase ribozyme fitness (log ratio)” value: ≤ -4.2 for the first, ≤ -4.2 for the second.

A40U C87U G88U and A39G G86C U109C G128U G140C cannot be ordered by “polymerase ribozyme fitness (log ratio)” value: ≤ -4.2 for the first, ≤ -4.2 for the second.

Compared with A40C C57U A60G U61A, A40G G83A C116G A138G is lower in “polymerase ribozyme fitness (log ratio)” value: -2.29 for the first, ≤ -4.2 for the second.

Compared with A40C G88U C96G C114U, A39G U53A C87U A115C is higher in “polymerase ribozyme fitness (log ratio)” value: ≤ -4.2 for the first, -3.83 for the second.

A39U C69U C75U G84U and A39U A91C G141C U148G cannot be ordered by “polymerase ribozyme fitness (log ratio)” value: ≤ -4.2 for the first, ≤ -4.2 for the second.

A40C U55G G58A U130A U135C and A39U A89G C93G C125U U139A cannot be ordered by “polymerase ribozyme fitness (log ratio)” value: ≤ -4.2 for the first, ≤ -4.2 for the second.

Going from A40C U82G G94A to A40C G48C C85G C95G U104G A122C U127G U135G, the “polymerase ribozyme fitness (log ratio)” value falls from 0.746 to ≤ -4.2.

A40C A73G G81U C95A A106C C125G G141C U146G A150U and A39U G58C G74U A91G C123G G133A U146C cannot be ordered by “polymerase ribozyme fitness (log ratio)” value: ≤ -4.2 for the first, ≤ -4.2 for the second.

Compared with A39G U61G C79A A91U C93U G126A, A40U C57G C105A is higher in “polymerase ribozyme fitness (log ratio)” value: ≤ -4.2 for the first, -0.98 for the second.

A39U U44G C79U G84C G136U and A39U A64U C87G cannot be ordered by “polymerase ribozyme fitness (log ratio)” value: ≤ -4.2 for the first, ≤ -4.2 for the second.
